In the RNAGym collection of RNA variant scans (doi:10.1093/nar/gkz1192):
The source gives no read counts; variants with many changes may rest on few reads.

B1: CPEB3 Ribozyme (parent)
chain: UAACAGGGGGCCACAGCAGAAGCGUUCACGUCGCAGCCCCUGUCAGAUUCUGGUGAAUCUGCGAAUUCUGCUGUAUAUCUC

Variants of: B1
Test: self-cleavage, relative activity (ratio to wild type); higher = more cleavage; in vitro, sequencing
Summary of the method: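 CPEB3 self-cleaving ribozyme mutant libraries were made by rounds of error-prone PCR, barcoded, and transcribed in vitro with T7 RNA polymerase for 5 hours at 37°C. Cleavage occurred during transcription and a 15 min DNase I step before EDTA stop. RNAs were reverse transcribed with template switching and Illumina-sequenced, with DNA sequencing mapping barcodes to variants. Relative activity is the variant's cleaved/total read fraction divided by wild type's (minimum 5 reads), averaged across three batches.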

Variant | self-cleavage
G7C A35G C38U U51C | 0.43
G7C A35G U74C | 0.45
G7C A35G U78C | 0.22
G7C A35U U54C U58A | 0.07
G7C A47G A57G U69C G73A | 0.06
G7C A47U A64U U66C U67C | 0.14
G7C C11A G24A U48C | 0.23
G7C C14U G33C C38A | 0.05
G7C C17G A18G C32U A45C A64G U72C | 0.04
G7C C23G U25C U31A U80C | 0.05
G7C C23U U51A A56G A65U U66C U72A | 0.04
G7C C23U U51A A56U | 0.2
G7C C27U A28G A35G A47U | 0.27
G7C C32A U67C | 0.31
G7C C32G G36U U60G U66C | 0.05
G7C C37U U58C | 0.16
G7C C39A U41A A56G U60C U78C | 0.01
G7C C44U A47U C59U C62U U66C U78C | 0.04
G7C G8A G30U A47U U54C | 0.04
G7C G8C U43C | 0.25
G7C G8C U69C | 0.17
G7C G8U U31G A47U U51C U54C | 0.04
G7C G9A A28G U43A A45G | 0.05
G7C G9A A75G | 0.23

Variant | self-cleavage
G7C G9A U60A A65U A75G U78C | 0.04
G7C G10U A13G A75G | 0.07
G7C G19A A20U U48A U72A | 0.06
G7C G19U A20G A21G C39U U69C | 0.06
G7C G19U A56G U72C | 0.36
G7C G30U U58C A75G | 0.05
G7C G33A U72A | 0.25
G7C G46A U51C U69A C71U | 0.04
G7C G53C U72C U78C | 0.09
G7C G63C A65G U80C | 0.12
G7C U25A A35G U54A A64U A65G C79U | 0.06
G7C U25C U26C C71U | 0.25
G7C U25C U31C U41C | 0.06
G7C U25C U60A | 0.17
G7C U26A A56U A57G A64U U80C | 0.8
G7C U26C A45G U49C A77G | 0.03
G7C U26C A77U | 0.18
G7C U31A A35C U66C C81A | 0.3
G7C U31A U41C U43C A64C | 0.05
G7C U31C U49C U78C | 0.23
G7C U41A U54C A56G | 0.14
G7C U48C U67A | 0.22
G7C U49C G53A U69A | 0.08
G7C U49C U67C | 0.15

Variant | self-cleavage
G7C U51A C68U U72C | 0.06
G7C U54A A56G A65U | 0.06
G7C U54G A64G U76C | 0.19
G7U A13G A28G C68U | 0.06
G7U A13G A45G | 0.36
G7U A13G A45U | 0.24
G7U A13G C17U U25A U26C A45G U78C | 0.07
G7U A13G C71U | 0.27
G7U A13G U51A C68U | 0.07
G7U A13U A20G C23U C32A G61A G73A | 0.05
G7U A15C A18G U43C | 0.03
G7U A15C A56G A57G U76C | 0.04
G7U A15G A21G U26C G52C U60C | 0.06
G7U A15G A45C U51C G52C A56G | 0.06
G7U A15G A47G U60A A65G U69C G70C | 0.04
G7U A15G U31A U72A | 0.05
G7U A15G U48A U72C | 0.26
G7U A15U A20C | 0.19
G7U A15U A21G G22U U41C U48C | 0.02
G7U A15U A28U A35U U51G | 0.04
G7U A15U A35C U41C A77G | 0.07
G7U A15U C39A A56G U72A U74C | 0.06
G7U A15U U25A A57G A75G | 0.04
G7U A15U U31C U54C G73A | 0.05

Variant | self-cleavage
G7U A15U U43A U72C U76A | 0.06
G7U A18C A35U | 0.2
G7U A18C G42A | 0.17
G7U A18C U25C | 0.05
G7U A18G A20U U25C U31A C39G A56U | 0.03
G7U A18G A21G A45U U54C U78C | 0.19
G7U A18G A45U U60C U69C | 0.09
G7U A18G C32U | 0.2
G7U A18G U25A U41C | 0.06
G7U A18G U31A U67C U76C | 0.05
G7U A18G U41C U49C | 0.29
G7U A18U A21C A28U A45U | 0
G7U A18U A28G | 0.11
G7U A18U A56G U60G | 0.16
G7U A18U G46A U51C U69A C71U U78C | 0.07
G7U A18U U41C U58A A65G | 0.04
G7U A20G A28C U66A | 0.05
G7U A20G A56U U69C | 0.07
G7U A20G G36A U48C U54C A65G | 0.08
G7U A20G G36U U41C U72C U78G U80A | 0.11
G7U A20G U25C C40U A65G C79U | 0.06
G7U A20G U48C U54C | 0.2
G7U A20G U48C U54C G63U | 0.1
G7U A20G U72C U74C | 0.07

Variant | self-cleavage
G7U A20G U78C U80C | 0.06
G7U A20U A56G | 0.08
G7U A20U U25A U26A C37A G46A U49C | 0.03
G7U A20U U41C U49C U60C U74A U76A | 0.05
G7U A21G A35G | 0.24
G7U A21G C27A U60C | 0.16
G7U A21G U26C C38A G46A U78C U80C | 0.12
G7U A21G U41C A56G U80C | 0.31
G7U A21G U49C U69C U72C | 0.18
G7U A21U U41A U43C | 0.16
G7U A28C A45U A64G U78C | 0.08
G7U A28C C29G C37A U54A C68A | 0.04
G7U A28G C37A U48C U58C U69A | 0.04
G7U A28G C44U U72C | 0.07
G7U A28G G52A U80C | 0.19
G7U A28G G63C A64G U80C | 0.15
G7U A28G G63C U80C | 0.15
G7U A28G U31A C39G U67A U72C | 0.04
G7U A28G U48C U51C A56G U78C | 0.04
G7U A28G U72C | 0.15
G7U A28U U51A | 0.19
G7U A28U U54A A56G U67C | 0.05
G7U A35G A56U U72A U76C U80A | 0.05
G7U A35G C44U A47G | 0.21

Variant | self-cleavage
G7U A35G U41C A56G U80C | 0.06
G7U A35G U43C | 0.18
G7U A35G U60A U74C | 0.22
G7U A35G U60C U67C | 0.1
G7U A35U G55U U76A A77G | 0.09
G7U A45U G52C U78C | 0.18
G7U A45U U67A U80A | 0.18
G7U A45U U72C G73A | 0.09
G7U A47G U58G A64U | 0.3
G7U A47G U60C G70C U76C | 0.12
G7U A56G A75G | 0.03
G7U A56G U72A | 0.15
G7U A56G U74A | 0.34
G7U A56G U78C | 0.16
G7U A56U C81A | 0.27
G7U A56U U72A | 0.37
G7U A57G A65G A77G | 0.09
G7U A64U A65G U66C | 0.47
G7U A64U A65G U67C | 0.02
G7U C11A A56G U60C U69A | 0.09
G7U C11G A28U A47G U48G A57G U66C | 0.04
G7U C11U A35U A45U C62A U69G | 0.08
G7U C11U U67C A75G | 0.05
G7U C12U A35U U58C | 0.05

Variant | self-cleavage
G7U C14U A21G A45U U54A A57G U67C | 0.09
G7U C14U A47U C59U U60C U66C U78C | 0.07
G7U C14U U54A A57G U67C | 0.04
G7U C14U U54A A57G U67C U72A | 0.09
G7U C17U G19A U67A | 0.06
G7U C17U U48C U58C A64G | 0.1
G7U C23G A28G U41C | 0.21
G7U C29U A45U U60C A77G | 0.35
G7U C29U U31C U41C U49C U80C | 0.05
G7U C32A U69C | 0.07
G7U C40A U41A U78C | 0.09
G7U C40U U41C G53C | 0.07
G7U G8U U26A | 0.07
G7U G9A A57U G73C | 0.08
G7U G9C U25C U41C U80C | 0.09
G7U G9C U60A | 0.05
G7U G9U A15U C50A U51C U60G A75G | 0.07
G7U G9U U76C | 0.06
G7U G10A A15U G19U | 0.22
G7U G10A A18G U48C | 0.17
G7U G10A C23U U31A A57G U74C | 0.04
G7U G10C A13C A28G C32U U51A | 0.08
G7U G10C A18G | 0.2
